From PubChem BioAssay AID1671188 (National Center for Advancing Translational Sciences (NCATS), 2021)
Screen size: about 100,000 compounds; about 250 (0.25%) were called active. The shares of active, inactive and inconclusive entries below differ from those in the screen. The call rests on the fitted dose curve; in most records, active means well fitted inhibition curve with a large enough effect; inconclusive means small, poorly fitted or top-dose-only effect; inactive means flat fitted curve, though single readings scatter. No potency is given beside an inconclusive call; the fits are too rough.
Further: nearly all actives have a fitted effect of over 60% in size.
On the % scale 0 is the no-effect control and ±100 the full control effect; potency means the concentration at half of the fitted maximal effect; tags describe the fitted curve by direction and shape.

What follows are compounds tested against Alanine aminotransferase 2 (Homo sapiens) (UniProt Q8TD30) (assay: Primary qHTS assay for inhibitors of Glutamate pyruvate transaminase 2 (GPT2)). Conditions: Recombinant GPT2, coupled pyruvate oxidase/HRP Amplex Red fluorescence; activity change, negative = inhibition: at 57.7 µM (top of the series) unless noted; series mostly up to 57.7 µM.
Chain of UniProt Q8TD30 (Q8TD30 whole entry, looked up): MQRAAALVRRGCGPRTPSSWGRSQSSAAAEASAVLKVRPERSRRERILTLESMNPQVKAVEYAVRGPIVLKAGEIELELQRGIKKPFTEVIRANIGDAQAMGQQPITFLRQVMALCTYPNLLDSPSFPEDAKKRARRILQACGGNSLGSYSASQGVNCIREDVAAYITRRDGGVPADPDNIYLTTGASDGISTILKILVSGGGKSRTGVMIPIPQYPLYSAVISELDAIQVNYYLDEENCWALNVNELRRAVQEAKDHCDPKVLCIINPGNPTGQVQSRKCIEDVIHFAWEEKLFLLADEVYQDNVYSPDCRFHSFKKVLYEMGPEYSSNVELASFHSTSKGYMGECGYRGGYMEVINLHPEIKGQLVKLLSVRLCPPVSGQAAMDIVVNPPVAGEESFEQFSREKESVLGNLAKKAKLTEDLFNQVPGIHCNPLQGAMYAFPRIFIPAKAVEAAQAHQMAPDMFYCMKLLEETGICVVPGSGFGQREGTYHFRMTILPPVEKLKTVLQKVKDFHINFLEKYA
Method in brief: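 Fluorescence read-out: pyruvate from GPT2 turnover coupled to pyruvate oxidase, HRP and Amplex Red (0.2mM ThPP, 0.2U/mL PO and HRP, 50uM Amplex final). Substrates 250uM a-KG, 2mM L-alanine; enzyme 10ng/uL; 30 min RT.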
For O=c1n(-c2ccc(C(F)(F)F)cc2)nc2n1CCN(Cc1ccc(C(F)(F)F)cc1)C2, the Potency was inconclusive [inhibitor, single point].
In the case of Fc1ccc(C2Cn3nnc(-c4nc(-c5ccccc5F)no4)c3CO2)cc1 (stereo not given), the Potency is reported as “inactive”.
With O=C1COCC2(CN1Cc1ccccc1)CN(C(=O)c1cncc(F)c1)C2 the Potency was “inactive”.
Cc1c(CC(=O)NC2CCOCC2)c2c(n1Cc1ccc(F)cc1)CCCC2=O was tested, and the Potency was inconclusive [inhibitor, partial curve, poor fit].
For Cc1nc2cc(C(=O)N3CC[C@@](C)(O)[C@@H](O)C3)ccc2s1, the Potency was inconclusive [inhibitor, single point].
For CC(C)[C@@H]1CN(C(=O)c2cccc(Cn3cccn3)c2)C[C@H]1NC(=O)N(C)C, the Potency was inconclusive [inhibitor, partial curve, poor fit].
In the case of CC(C)N1CC[C@@H]2[C@H]1C(=O)NC[C@H](CCC(=O)NCc1ccc(F)cc1)N2C, the Potency is reported as inconclusive [inhibitor, single point].
For O=C(c1cccc(O)c1)N1CC(CNc2ccccc2)C2(C1)CN(c1ccccc1)C2 (stereo not given), the Potency was “inactive”.
In the case of COc1cccc(-c2nc(N3CCOCC3)cc3c2CN(CC(F)(F)F)C3=O)c1OC, the Potency is reported as inconclusive [inhibitor, single point].
For CC1CCN(CC2CCCCCN2C(=O)NCc2ccc(F)cc2)CC1 (stereo not given), the Potency was “inactive”.
With N#Cc1ccc(CN2C[C@@H]3OCC(=O)N(CC(N)=O)[C@@H]3C2)cc1 the Potency was inconclusive [inhibitor, single point].
With CN(Cc1ccc(F)cc1)c1ccc2ncc(Nc3cccc(O)c3)n2n1 the Potency was inconclusive [inhibitor, full curve, poor fit].
OC(c1ccc(-c2ccc(CN3CCN(Cc4ccncc4)CC3)cc2)c(F)c1)(C(F)(F)F)C(F)(F)F was tested, and the Potency was “inactive”.
With COc1ccc(C(=O)NC2CCCN(c3cc(-c4ccc(F)cc4)[nH]n3)C2)cc1 (stereo not given) the Potency was inconclusive [inhibitor, partial curve, poor fit].
For CSc1nccc(N2CCC3(CC2)CC(=O)N(CC(C)C)C3)n1, the Potency was “inactive”.
With CC1C=CC2CCCCC2C1CCC1CC(O)CC(=O)O1 (stereo not given) the Potency was inconclusive [inhibitor, single point].
Cc1cc(Cn2cc3c4c(cccc42)[C@H](CC(C)C)N[C@H](C(=O)NCc2ccccn2)C3)no1 was tested, and the Potency was inconclusive [inhibitor, single point].
With CCC(NC(=O)c1ccc2nc(-c3ccc(F)cc3)cn2c1)c1cccnc1 (stereo not given) the Potency was inconclusive [inhibitor, single point].
In the case of O=C(Nc1cccc(Cl)c1)C1CCc2sc(C(=O)N3CCCC3)cc2C1 (stereo not given), the Potency is reported as “inactive”.
CC(=O)N1CCN(C(=O)c2ccc3nc(-c4ccnc(Cl)c4)oc3c2)CC1 was tested, and the Potency was “inactive”.
With O=[S+]([O-])(Nc1ccccc1)c1ccc2c(c1)OCCN(Cc1cncnc1)C2 the Potency was inconclusive [inhibitor, single point].
CCCNC(=O)c1cccc2c1CCN2S(=O)(=O)c1ccc(C)cc1 was tested, and the Potency was inconclusive [inhibitor, single point].
For COc1cccc(-c2cc3c(ccn3C)c(C(=O)NCc3c(C)cc(C)[nH]c3=O)n2)c1, the Potency was inconclusive [inhibitor, partial curve, poor fit].
For FC1CCN(Cc2cn(Cc3ccccc3)nc2-c2cc3ccccc3o2)CC1, the Potency was “inactive”.
With CN(C(=O)Cn1cccc1-c1nc(-c2ccc3c(c2)OCO3)no1)c1ccccc1 the Potency was “inactive”.
With COc1cccc(C(=O)N2CCc3onc(-c4cccc(F)c4)c3C2)c1OC the activity change, negative = inhibition was inactive: -13.7% [at 11.5 µM].
For C=CCNC(=O)c1cnn2c1CN(C(=O)c1cccnc1)CC2, the Potency was “inactive”.
For COc1ccc(-c2cc(N3CCCC(NC(=O)Cc4ccccc4)C3)n[nH]2)cc1 (stereo not given), the Potency was inconclusive [inhibitor, single point].
CCn1c(C2CCCN(CC(C)(C)CN3CCOCC3)C2)nn(C)c1=O (stereo not given) was tested, and the Potency was inconclusive [inhibitor, single point].
CC(C)(C)CN1CCNc2cc(Nc3ccccc3)ncc2C1 was tested, and the Potency was inconclusive [inhibitor, single point].
In the case of CCCCc1cc2ccccc2c(OCCN(C)C)n1, the Potency is reported as inconclusive [inhibitor, full curve, poor fit].
CN1CCN(c2ccc3ncc(Nc4ccc(OC(F)(F)F)cc4)n3n2)CC1 was tested, and the Potency was inconclusive [inhibitor, single point].
In the case of O=C(c1ccc2cc[nH]c2c1)N1CCCN(c2cc(-c3ccc(Cl)cc3)[nH]n2)CC1, the Potency is reported as inconclusive [inhibitor, single point].
Cc1cnc(C(=O)NC2CC(=O)N(Cc3cccc4ccccc34)C2)cn1 (stereo not given) was tested, and the Potency was inconclusive [inhibitor, single point].
In the case of O=S(=O)(c1ccsc1-c1nc(-c2cccnn2)no1)N1CCCC1, the Potency is reported as inconclusive [inhibitor, single point].
Cc1cccc(C)c1NC(=O)C(C)N (stereo not given) was tested, and the Potency was inconclusive [inhibitor, single point].
In the case of COc1ccc(CNC(=O)C[C@@H]2O[C@H](Cn3cc(CN(C)Cc4ccccc4)nn3)[C@@H](O)[C@H]2O)cc1, the Potency is reported as “inactive”.
With O=C(Nc1ccc(Cl)cc1Cl)c1ccc2ccnn2c1 the Potency was “inactive”.
In the case of COc1ccc(Nc2nccc3c(=O)cc(N4CCOCC4)oc23)cn1, the Potency is reported as inconclusive [inhibitor, single point].
For Cn1cc(CN2CCOC[C@H]2c2ncc(C(C)(C)C)[nH]2)c2ccccc21, the Potency was inconclusive [inhibitor, single point].
With COc1cncc([C@@H](NC(=O)c2cccc(-n3cccn3)c2)C2CC(O)C2)c1 (stereo not given in full) the Potency was inconclusive [inhibitor, full curve, poor fit].
CC(C)c1ccc(CC(=O)N2CCCc3ncc(C(=O)N4CCCC[C@@H]4Cc4ccccc4)cc32)cc1 was tested, and the Potency was inconclusive [inhibitor, partial curve].
COc1ccccc1CCC(=O)N1CCC(Cc2nc(-c3ccccc3)no2)CC1 was tested, and the Potency was inconclusive [inhibitor, single point].
In the case of CC(Cn1cccn1)C(=O)N1CCc2[nH]nc(-c3ccc(Cl)cc3)c2C1 (stereo not given), the Potency is reported as inconclusive [inhibitor, single point].
For COc1cc(OC)c(C(=O)N2CCC3(CC2)[C@H](O)C[C@@H]3OC)cc1OC, the Potency was inconclusive [inhibitor, full curve].
O=C1[C@@H]2C[C@@H](CN2Cc2ccc(F)c(F)c2)Oc2ccccc2N1Cc1ccccn1 was tested, and the Potency was inconclusive [inhibitor, single point].
With CC(=O)Nc1ccc(CN2C(=O)OC3(CCN(Cc4ccc(C#N)cc4)CC3)C2(C)c2ccccc2)cc1 (stereo not given) the Potency was inconclusive [inhibitor, single point].
For CCCN1CCC=C(c2cc(-c3ccc(C)cc3)no2)C1, the Potency was inconclusive [inhibitor, single point].
In the case of C=C1CCCC2(C)CCC(C(C)(C)OC3OC(C)C(O)C(O)C3OC(=O)/C(C)=C\C)CC12 (stereo not given), the Potency is reported as inconclusive [inhibitor, partial curve, poor fit].
For Cc1ccc(C(=O)N[C@@H]2CN(Cc3ccncc3)C[C@H]2CN(C)C)cc1C, the Potency was “inactive”.
For OCc1ccc(CN2C[C@H](O)C[C@H]2c2nc(-c3ccc(OC(F)(F)F)cc3)no2)o1, the Potency was inconclusive [inhibitor, single point].
CCC(O)c1cc2n(n1)CCN(c1nc(-c3ccccc3)nc3c1CCC3)C2 (stereo not given) was tested, and the Potency was “inactive”.
In the case of O=C(C1CCN(Cc2ccccc2-c2cccnc2)CC1)N1CCN(Cc2ccccc2)CC1, the Potency is reported as inconclusive [inhibitor, single point].
In the case of O=C(c1cccn2nccc12)N1CCOCC1, the Potency is reported as “inactive”.
With COc1ccc(OC)c(S(=O)(=O)N[C@H]2CO[C@H]3[C@@H]2OC[C@H]3OC(=O)Nc2cccc3ccccc23)c1 the Potency was inconclusive [inhibitor, single point].
With Cc1c(N(C)C)c(=O)n(-c2ccccc2)n1C the Potency was inconclusive [inhibitor, single point].
For COCCn1c(C)cnc1CC1CCCN(C(=O)C2(c3ccc(OC)cc3)CC2)C1 (stereo not given), the Potency was “inactive”.
Cc1ccc(NC(=O)N2CCC3(CCNC(=O)CC3)CC2)cc1F was tested, and the Potency was “inactive”.
In the case of O=C(NCC1CCN(c2cc(-c3ccccc3)[nH]n2)CC1)c1ccc(=O)[nH]c1, the Potency is reported as inconclusive [inhibitor, partial curve].
For COc1cccc(CNC(=O)[C@H]2CCC[C@H]2NC(=O)c2ccncc2)c1OC, the Potency was inconclusive [inhibitor, single point].
With CCCC(NC(C)=O)c1nc(CC(N)=O)nn1-c1ccc(F)cc1F (stereo not given) the Potency was “inactive”.
In the case of CN1C(=O)C(CC(=O)N2CCCC2)Sc2ncccc21 (stereo not given), the Potency is reported as inconclusive [inhibitor, single point].
Cc1cccc(S(=O)(=O)N2CCc3c(C(=O)NCCN4CCCCC4)cccc32)c1 was tested, and the Potency was inconclusive [inhibitor, single point].
CC(C)(C)Nc1nc(Nc2ccc(C(N)=O)cc2)cc(N)c1C#N was tested, and the Potency was inconclusive [inhibitor, partial curve].
O=C(C[C@@H]1CCNC[C@@H]1Cc1cc(CC2CCCCC2)on1)NCc1cccnc1 was tested, and the Potency was “inactive”.
